The shares of active, inactive and inconclusive entries below differ from those in the screen. Potencies beside an inconclusive call are fits to weak or partial responses and may not hold up. The source holds several records for some structures; these can differ, active in one and inactive in another. The source made the active and inactive calls. Calls follow the shape of the dose curve; as a rule, active = well fitted cell-killing curve with a large enough effect in the repeat runs; inconclusive = weak or mixed curves, or effect the other way; inactive = no such curve, though single readings can be large or run the other way.
experiment: qHTS assay to identify small molecule agonists of the RXR signaling pathway - cell viability counter screen (AID 1159529); conditions: RXR-alpha-bla HEK293T viability, CellTiter-Glo, 16 h; series mostly up to 76.8 µM; also: nearly all actives have a fitted effect of over 50% in size
Text: National Center for Advancing Translational Sciences [NCATS]
NIH Chemical Genomics Center [NCGC]
U.S. Environmental Protection Agency [EPA]
National Institutes of Environmental Health Sciences [NIEHS]
National Toxicology Program [NTP]
U.S. Food and Drug Administration [FDA]
The Retinoid X receptor (RXR), a nuclear hormone receptor expressed in liver, spleen, placenta, epidermis, central nervous system. These receptors are able to form homo and heterodimers with other nuclear receptors and due to this heterodimerizing ability, RXR functions as master regulators producing diverse physiological effects. Three subtypes of RXR exist; alpha, beta and gamma. Retinoid X receptor alpha (RXR-alpha) has potential roles in metabolic signaling pathways, skin alopecia, dermal cysts, cardiac development, insulin sensitization etc. Therefore screening environmental chemicals on RXR-alpha signaling can be used for the studies focused on such therapeutic applications. For quantification of RXR-alpha ligands signaling, GeneBLAzer RXR alpha-UAS-bla HEK 293T (Life Technologies, Carlsbad, CA) cells containing a beta-lactamase reporter-gene under control of Retinoid X receptor-alpha response element were used to screen Tox21 10K library. The cytotoxicity of the Tox21 compound library against the RXR-alpha HEK 293T cell line was tested in parallel by measuring cell viability using CellTiter-Glo assay (Promega Corporation, Madison, WI) in the same wells.
Tox21 Assay Protocol Summary:
RXR-alpha HEK 293T cells were dispensed at 2,000 cells/6 uL of assay medium containing 2% charcoal-stripped FBS using a Multidrop Combi (ThermoFisher Scientific, Waltham, MA) dispenser. The assay was performed in black wall/clear-bottom 1536-well plates (Greiner Bio-One North America Inc. Monroe, NC). Tetraoctyl ammonium bromide was used as a positive control in the cytotoxicity screen. After the assay plates were incubated at 37 C and 5% CO2 for 5 hr, 23 nL of compounds dissolved in DMSO, positive control or DMSO only were transferred to the assay plate by a Pintool station (Kalypsys, San Diego, CA). The assay plates were incubated at 37 C and 5% CO2 for 16 hr. One uL of LiveBLAzer B/G FRET substrate (Life Technologies) was added using a Flying Reagent Dispenser (FRD) (Aurora Discovery, San Diego, CA) and the plates were incubated at room temperature for 2 hr. Fluorescence intensity (405 nm excitation, 460/530 nm emission) was measured using an Envision plate reader (PerkinElmer, Shelton, CT). For cytotoxicity, 4 uL/well of CellTiter-Glo reagent was added into the assay plates using an FRD. After 30 min incubation at room temperature, the luminescence intensity was measured using a ViewLux plate reader (PerkinElmer).
% is scaled to controls: 0 for no effect and ±100 for the full control effect; potency is read from the fitted curve at half-maximal effect; tags tell the direction and shape of the fitted curve.

Compound | Potency | activity change, negative = cytotoxicity
O=C(/C=C/c1ccc([N+](=O)[O-])cc1)c1ccccc1 | inconclusive: 55.1 µM [cytotoxic, single point] | 
NCCCCCCN | inactive | 
CO[C@@H]1[C@@H](OC)[C@H](C)[C@@](O)(CC(=O)O)O[C@H]1[C@H](C)[C@H]1O[C@@]2(CC[C@@](C)([C@H]3CC[C@@](C)([C@@H]4O[C@@H]([C@H]5O[C@](C)(O)[C@H](C)C[C@@H]5C)C[C@@H]4OC4C[C@H](OC)[C@@H](OC)[C@H](C)O4)O3)O2)C[C@H](O)[C@H]1C (stereo not given in full) | inconclusive: 6.01 µM [cytotoxic, full curve] | 
CC(C)=CCC[C@](C)(O)[C@@H]1CC=C(C)CC1 | inconclusive: 49 µM [cytotoxic, partial curve, poor fit] | 
NC(Cc1ccc(F)cc1)C(=O)O (stereo not given) |  | inactive: 2.52% [at 6.97 µM]
CCC(=O)Oc1ccc(/C(CC)=C(\CC)c2ccc(OC(=O)CC)cc2)cc1 | active: 54.9 µM | 
Oc1ccc2ccccc2c1 | inconclusive: 56.3 µM [cytotoxic, single point] | 
CC1=CC(=O)CC(C)(C)C1 | active: 25.3 µM | 
Cc1cccc(C(=O)O)c1O | inactive | 
CCCCCCCCCCO[C@@H]1O[C@H](CO)[C@@H](O)[C@H](O)[C@H]1O | inconclusive: 43.6 µM [cytotoxic, partial curve] | 
c1ccc(SSc2ccccc2)cc1 | inconclusive: 6.97 µM [cytotoxic, full curve] | 
C/C=C\C/C=C/CCCCCCCCOC(C)=O | inconclusive: 38.9 µM [cytotoxic, partial curve] | 
O=C1c2ccccc2C(=O)c2c(O)ccc(O)c21 | inactive | 
NC(=O)N(O)[C@@H]1COc2cc(OCc3ccccc3)ccc21 | inconclusive: 61.6 µM [cytotoxic, partial curve, poor fit] | 
Cc1cn([C@H]2C[C@H](N=[N+]=[N-])[C@@H](CO)O2)c(=O)[nH]c1=O | inconclusive: 0.0849 µM [rising, partial curve] | 
Cc1cc(O)ccc1N | active: 34.9 µM | 
O=C(Oc1ccccc1)c1ccc2ccccc2c1O | inconclusive: 54.9 µM [cytotoxic, partial curve, poor fit] | 
Cc1ccc(NC(=O)N(C)C)cc1NC(=O)N(C)C | inactive | 
CC(C)c1ccccc1O | inactive | 
CC(C)(C)c1ccc(OC2CCCCC2O)cc1 (stereo not given) | inconclusive: 0.0015 µM | 

Compound | Potency | activity change, negative = cytotoxicity
Cc1cccc(CN2CCN(C(c3ccccc3)c3ccc(Cl)cc3)CC2)c1 (stereo not given) | inconclusive: 26.8 µM [cytotoxic, single point] | 
CC(=O)OCCC(C)CC(C)(C)C (stereo not given) | inactive | 
CCCCCCCC(=O)Oc1c(Br)cc(C#N)cc1Br | inconclusive: 7.73 µM [cytotoxic, full curve] | 
O=CNNC=O | inactive | 
[O-][n+]1cccc(CO)c1 | inactive | 
NC(=O)c1ccc([N+](=O)[O-])cc1 | inactive | 
CN(C)c1ccc(C(=N)c2ccc(N(C)C)cc2)cc1 | inconclusive: 52.9 µM [cytotoxic, single point] | 
OC1CCC(C2CCCCC2)CC1 (stereo not given) | inconclusive: 49 µM [cytotoxic, partial curve, poor fit] | 
CCCCCCCCc1ccc(S(=O)(=O)O)cc1 | active: 24.3 µM | 
CC(C)(C)CC(C)(C)c1ccc(OCCO)cc1 | inconclusive: 61.3 µM [cytotoxic] | 
c1ccc(COCc2ccccc2)cc1 | inactive | 
COc1ccc(Cl)cc1C(=O)NCCc1ccc(S(=O)(=O)NC(=O)NC2CCCCC2)cc1 | inactive | 
CCCc1c(OCCCOc2ccc(OCC(=O)O)cc2)ccc(C(C)=O)c1O | inconclusive: 17.4 µM [cytotoxic, partial curve] | 
CNCc1ccc(NC(=O)c2c[nH]c3c2C(=O)CCC3)cc1 | inconclusive: 19.5 µM [rising, partial curve, poor fit] | 
CCCc1ccc(OCC(=O)N2CCN(C(=O)COc3ccc(CCC)cc3OC)CC2)c(OC)c1 | inconclusive: 10.7 µM [cytotoxic, single point] | 
SCCc1cnccn1 | inconclusive: 27.5 µM [cytotoxic, partial curve, poor fit] | 
CN1CC(=O)N/C1=N/C(=O)Nc1cccc(Cl)c1 | inactive | 
CC(=O)[C@H]1CC[C@H]2[C@@H]3C=CC4=CC(=O)CC[C@@]4(C)[C@@H]3CC[C@]12C | inconclusive: 8.49 µM [cytotoxic, partial curve, poor fit] | 
NCCOCCOCCN | inconclusive: 11 µM [cytotoxic, partial curve, poor fit] | 
O=C1C=CC(=O)N1c1cccc(N2C(=O)C=CC2=O)c1 | active: 11 µM | 
